Out of some 310,000 compounds screened, about 14,000 (4.5%) showed an effect of 50% or more. The effect is printed as a negative number. The list shows a part of the results.
Target: human ether-à-go-go-related gene (hERG) potassium channel (human, UniProt Q12809)
Assay: primary screen, population patch clamp on CHO cells stably expressing hERG
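Further: peak tail current of the secondary pulse compared with the same well before compound.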

Chain of human ether-à-go-go-related gene (hERG) potassium channel (Q12809 whole entry, looked up): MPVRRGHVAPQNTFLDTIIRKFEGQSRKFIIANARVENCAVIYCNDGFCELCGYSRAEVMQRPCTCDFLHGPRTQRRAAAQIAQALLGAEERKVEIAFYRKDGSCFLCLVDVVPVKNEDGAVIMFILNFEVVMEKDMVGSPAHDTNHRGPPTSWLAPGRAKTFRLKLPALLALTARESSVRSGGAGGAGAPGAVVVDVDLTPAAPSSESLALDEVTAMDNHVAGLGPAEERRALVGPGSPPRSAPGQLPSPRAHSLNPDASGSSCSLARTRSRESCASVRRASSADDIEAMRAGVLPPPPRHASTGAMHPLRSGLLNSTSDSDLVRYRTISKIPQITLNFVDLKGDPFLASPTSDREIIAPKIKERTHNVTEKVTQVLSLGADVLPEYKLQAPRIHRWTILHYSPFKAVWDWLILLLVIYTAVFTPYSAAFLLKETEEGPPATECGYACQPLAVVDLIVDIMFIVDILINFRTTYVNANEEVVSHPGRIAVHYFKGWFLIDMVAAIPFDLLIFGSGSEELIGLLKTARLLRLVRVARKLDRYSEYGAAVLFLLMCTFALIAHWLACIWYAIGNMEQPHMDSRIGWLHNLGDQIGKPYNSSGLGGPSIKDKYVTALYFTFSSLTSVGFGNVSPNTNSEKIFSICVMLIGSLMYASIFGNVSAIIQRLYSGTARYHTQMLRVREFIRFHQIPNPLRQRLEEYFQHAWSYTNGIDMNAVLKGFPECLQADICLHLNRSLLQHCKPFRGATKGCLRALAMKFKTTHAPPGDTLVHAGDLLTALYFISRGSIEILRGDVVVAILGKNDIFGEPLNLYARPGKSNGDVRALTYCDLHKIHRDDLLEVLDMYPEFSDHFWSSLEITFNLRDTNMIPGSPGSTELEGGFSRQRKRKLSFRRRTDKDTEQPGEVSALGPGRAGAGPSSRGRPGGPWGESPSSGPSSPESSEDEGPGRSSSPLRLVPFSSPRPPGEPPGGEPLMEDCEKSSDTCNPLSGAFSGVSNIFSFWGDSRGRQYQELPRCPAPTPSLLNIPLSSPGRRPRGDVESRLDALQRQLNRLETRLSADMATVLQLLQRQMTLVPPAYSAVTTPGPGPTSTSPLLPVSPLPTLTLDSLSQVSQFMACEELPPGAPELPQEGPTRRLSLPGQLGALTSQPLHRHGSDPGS

Structure (SMILES)	hERG current change (%, negative = inhibition) at 10uM
N#Cc1ccc(CSc2nnc(-c3cccnc3)n2-c2ccccc2)cc1	-71.2%
CCOC(=O)c1nn(-c2ccc(C)c(C)c2)c(=O)c2c(N)scc12	-4.22%
O=C(CSc1nc(SCC(=O)NCc2ccccc2)n(-c2ccccc2)n1)NCc1ccccc1	-25.6%
O=C1NCCN(Cc2c(F)cccc2Cl)C1CC(=O)N1CCCO1 (stereo not shown)	25.1%
CSc1nnc(-c2cccc(C)c2)n1N	7.87%
N/C(=N\OC(=O)CCC(=O)O)c1ncc(C(F)(F)F)cc1Cl	19.2%
O=C(Nc1cc(Cl)ccc1Cl)Nn1cnnc1	11.5%
O=C(CCCn1c(=O)[nH]c2ccsc2c1=O)N1CCN(c2ccccn2)CC1	5.57%
COc1cc(OC)c(C(=O)Nc2ccc(C(=O)c3ccccc3)cc2)cc1OC	11.7%
Cc1cccc(OCC(=O)NNC(=O)c2cccs2)c1	6.4%
CCCCNC(=O)c1ccccc1NC(=O)CCC	7.1%
CCOC(=O)c1c(NS(C)(=O)=O)sc2c1CCC(C)C2 (stereo not shown)	6.1%
CC(C)CC(NC(=O)c1ccc(C#CC(C)(C)O)s1)C(=O)O (stereo not shown)	18.7%
O=C(CCC1CCN(C(=O)c2cccc(Cl)c2F)CC1)Nc1ccccc1	-31.6%
COc1ccccc1N1CCN(S(=O)(=O)c2cc(-c3cc(C)no3)ccc2C(C)C)CC1	16.1%
CCOc1ccc(NC(=O)CCNC(=O)N2C[C@H]3C[C@@H](C2)c2cccc(=O)n2C3)cc1	12.2%
CC(=O)c1ccccc1OCCn1nnc(-c2ccc(C)cc2)n1	-13.7%
CCOc1ccc(N2C(=O)CC(N3CCc4ccccc43)C2=O)cc1 (stereo not shown)	-3.24%
COc1ccc(S(=O)(=O)N(CC(=O)NCc2ccccn2)Cc2ccccc2)cc1	-15.7%
COc1cccc(C(=O)CSc2nnc(-c3ccco3)n2CC2CCCO2)c1 (stereo not shown)	-32.3%
Cc1cccn2c(=O)c3cc(S(=O)(=O)c4ccccc4)c(=N)n(Cc4cccnc4)c3nc12	-66.1%
COc1ccc(S(=O)(=O)NCCCN2CCOCC2)cc1F	10.9%

Structure (SMILES)	hERG current change (%, negative = inhibition) at 10uM
O=C(N=Nc1c(O)[nH]c2ccccc12)c1ccc2c(c1)OCO2	6.09%
CC(C)(C)NC(=O)N1CCN(S(=O)(=O)c2ccc3c(c2)CCC3)CC1	11.9%
COc1ccc(OCC(=O)N(Cc2ccc(C)o2)C2CCS(=O)(=O)C2)cc1 (stereo not shown)	-19.5%
COc1ccccc1C1CC(=O)NC(C)=C1C(=O)OCC1CCCO1 (stereo not shown)	5.35%
CCOC(=O)N1CCN(S(=O)(=O)c2ccc(C(=O)NNc3nc4c(C)cccc4s3)cc2)CC1	-2.43%
O=C(CSc1nnc(-c2ccc(O)cc2)o1)N1CCOCC1	5.74%
CC(C)CNC(=O)C1C2C=CC(C2)C1C(=O)O (stereo not shown)	30%
Cc1cccc(-c2nc3c(c(SCC(N)=O)n2)CCCC3)c1	-4.49%
Cc1ccc(S(=O)(=O)c2cc(Nc3ccccc3)ccc2O)cc1	-0.223%
COc1cccc(NC(=O)CN(C)C(=O)CCNC(=O)c2ccc(Br)cc2)c1	-23.8%
O=C(Nc1cccnc1)c1ccc(NS(=O)(=O)c2cc([N+](=O)[O-])ccc2Cl)cc1	13.3%
O=C(NC1CCCC1)C(c1ccccc1F)N(C(=O)c1ccco1)C1CCCC1 (stereo not shown)	-18.3%
COCCNC(=O)/C(C#N)=C/c1ccc2c(c1)OCO2	19.1%
O=C(NCCSCc1c(F)cccc1Cl)c1ccc(CN2CCOCC2)cc1	-26.9%
COc1cc(N)c(Cl)cc1C(=O)OCC(=O)N(C)C1CCCCC1	5.34%
Cc1c(NC(=O)NC(=O)c2ccc(F)cc2)c(=O)n(-c2ccccc2)n1C	1.36%
COc1ccc(NC2CCCN(C(=O)CSc3ccccc3)C2)cc1 (stereo not shown)	-2.05%
O=C(NCC1CCCO1)C(c1cccs1)N(Cc1ccccc1)C(=O)c1ccc(-c2ccccc2)[nH]1 (stereo not shown)	2.82%
Cc1cc(C)c(C#N)c(N2CCSCC2)n1	4.36%
COc1cc(CNc2ccc(C)c(C)c2)cc(OC)c1OC	3.55%
COc1ccccc1/C=C1\SC(=S)N(N2C(=O)CCCC2=O)C1=O	-4.43%
COc1ccc(-c2nc3ccccc3c(=O)n2CCN2CCOCC2)cc1	-5.54%

Structure (SMILES)	hERG current change (%, negative = inhibition) at 10uM
COc1ccc(CN=Cc2[nH]c3ccc(Br)c(Cl)c3c2O)cc1	-9.91%
COc1ccc(-c2nc3ccccn3c2NC2CCCCC2)cc1SC1CCCCC1.O=C(O)C(F)(F)F	2.91%
O=C(Cc1ccc(F)cc1)Nc1cccc(-c2ccc3nncn3n2)c1	-21.4%
O=C(NC(Cc1ccccc1)C(=O)O)/C(=C\c1ccc(Cl)cc1)NC(=O)c1ccccc1 (stereo not shown)	23.8%
O=C(c1ccc(C(F)(F)F)cc1)C1CCCN(C(=O)c2csnn2)C1 (stereo not shown)	-22.6%
O=C(c1ccc(OC(F)(F)F)cc1)c1ncc[nH]1	5.8%
CCc1nc2c(cnn2-c2ccc(Cl)cc2)c(=O)n1-c1ccc(OC)cc1	-3.59%
NC(=O)C(c1ccc(Sc2ccccc2)nn1)c1ccc(Cl)cc1Cl (stereo not shown)	-43.9%
O=[N+]([O-])c1ccc(-n2cnc3ccccc32)c([N+](=O)[O-])c1	-57.8%
Cc1ccccc1NN=Nc1nc2c([nH]1)c(=O)n(C)c(=O)n2C	13.6%
CC(=O)Nc1ccc(S(=O)(=O)Nc2nc3c(s2)CCCC3)cc1	4.81%
COc1ccc(C)cc1NC(=O)NCCC1=CCCCC1	-10.8%
CN1CCN(NC(=O)c2ccc(Br)c(S(=O)(=O)N3CCOCC3)c2)CC1.Cl	12.8%
COC(=O)c1ccccc1NC(=O)Cn1nnc(-c2ccc(OC)cc2)n1	-0.407%
Cc1[nH]n(-c2ccccc2)c(=O)c1C=NCCc1ccccc1	-12.7%
Cc1ccc(-c2nc3ccccc3o2)cc1NC(=S)NC(=O)/C=C/c1ccco1	13.7%
O=C(NCc1ccccc1)C(=O)NCC(c1ccco1)N1CCN(c2ccccc2F)CC1 (stereo not shown)	-0.97%
CCC(=O)Nc1nc2c(c(=O)[nH]1)CCCC2	14.7%
CN1C(=O)C(C)(C)c2cc(S(=O)(=O)N3CCN(c4ccccc4)CC3)ccc21	-25.5%
O=C(CN1CSCC1=O)N1CCN(S(=O)(=O)c2ccc(Cl)cc2)CC1	-26.6%
Cc1ccc(Cn2c(=O)oc3ccccc32)cc1	10.5%
CCS(=O)(=O)N1CCN(C(=O)COc2ccc(-c3ccccc3)cc2)CC1	-47.4%

Structure (SMILES)	hERG current change (%, negative = inhibition) at 10uM
COc1ccc(-c2nc3ccccc3c(=O)n2-c2c(C)n(C)n(-c3ccccc3)c2=O)cc1	-0.296%
CCOC(=O)c1cc(=O)n2c(nc3ccccc32)[nH]1	8.23%
NC(=O)NC(Cc1ccccc1)C(=O)O (stereo not shown)	24.8%
COc1ccc(NC(=O)Nc2ccc([N+](=O)[O-])cc2)cn1	9.11%
CN1C/C(=C/c2cccs2)C(=O)/C(=C\c2cccs2)C1	-13.8%
COC(=O)c1ccccc1NC(=O)c1sc(N)nc1C	11.1%
O=C(Nc1ccc(Cc2ccncc2)cc1)c1ccc(Cl)c([N+](=O)[O-])c1	-12.3%
CC(=O)Nc1ccc(S(=O)(=O)Nc2nnc(C3CCCCC3)s2)cc1	15.8%
O=c1[nH]c(/C=C/c2cccc3ccccc23)nc2ccccc12	36.4%
O=C(Cn1cc(S(=O)(=O)Cc2ccccc2)c2ccccc21)Nc1ccccc1	4.23%
O=C(CN1C(=O)CCSc2ccc(S(=O)(=O)N3CCCC3)cc21)NCc1ccccc1Cl	-9.59%
CN(Cc1cccs1)C(=O)CCc1c[nH]c2ccccc12	-1.59%
N#C/C(=C(/O)COc1ccccc1)c1nnc2n1CCCCC2	9.43%
Cc1cc2oc(=O)cc(CN3CCN(S(=O)(=O)/C=C/c4ccccc4)CC3)c2cc1C	1.24%
Cn1nnnc1SC(C(=O)Nc1ccc(F)cc1)c1ccccc1 (stereo not shown)	0.428%
Cc1ccc(NC(=O)Cn2c(=O)c3cccn3c3ccccc32)c(C)c1	-2.61%
CCC(c1nnnn1C1CCCC1)N1CCN(Cc2ccccc2)CC1.Cl (stereo not shown)	-34.6%
O=C(CCC1CCCCC1)NCCS(=O)(=O)N1CCN(c2ccccc2)CC1	7.85%
COc1ccc(-n2c(N)c(Br)c(=O)[nH]c2=O)cc1	-3.12%
COc1cc(C2NCc3ccccc3-n3cccc32)ccc1O.Cl (stereo not shown)	-23%
COC(=O)C1=C(c2cccc3c2S(=O)(=O)c2ccccc2-3)C[C@@H]2CC[C@H]1N2C(=O)N1CCc2cc(OC)c(OC)cc2C1	15.4%
C#CCOC(=O)Nc1ccc(OCC(F)(F)F)nc1	1.66%

— article PMC4336329 (PLoS ONE, 2015)
